# In all, about 33,000 sequences were measured (“E-score (-0.5 to 0.5)”: median about -0.036, highest 2% from about 0.37 on). Some of the results follow.
# Target: T1, Yer064c (UniProt P40041)
# T1 sequence: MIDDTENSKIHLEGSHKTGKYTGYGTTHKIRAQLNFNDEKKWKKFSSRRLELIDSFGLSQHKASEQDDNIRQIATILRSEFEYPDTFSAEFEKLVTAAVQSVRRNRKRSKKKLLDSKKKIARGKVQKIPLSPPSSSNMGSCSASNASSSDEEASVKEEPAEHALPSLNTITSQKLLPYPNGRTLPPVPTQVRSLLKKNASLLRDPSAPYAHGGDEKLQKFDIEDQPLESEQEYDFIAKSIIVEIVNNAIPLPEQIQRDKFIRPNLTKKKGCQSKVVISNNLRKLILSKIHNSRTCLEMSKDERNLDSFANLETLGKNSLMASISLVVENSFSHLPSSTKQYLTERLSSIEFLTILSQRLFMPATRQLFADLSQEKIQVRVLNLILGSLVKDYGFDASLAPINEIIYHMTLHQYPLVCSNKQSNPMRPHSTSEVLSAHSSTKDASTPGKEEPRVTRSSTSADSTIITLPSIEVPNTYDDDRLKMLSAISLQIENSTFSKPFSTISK
# Test: PBM E-score (8-mer binding enrichment) (E-score (-0.5 to 0.5)); higher = stronger / more preferred TF binding; most listed sequences are background and not binding sites
# Details: protein concentration: 200 nM; construct: GST-full length
# Method in brief: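 Detection of bound protein used fluorescent anti-GST, with scans normalised by masliner. The proteins were GST-tagged yeast transcription factors applied at about 100-200 nM to universal all-10-mer Agilent arrays made double-stranded by primer extension. Each ungapped eight-base word, pooled with its reverse complement, was scored with an E-score from the Universal PBM Analysis Suite.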
row,Sequence,PBM E-score
1,CAGATAAA,0.086
2,CGGTCTGA,0.15
3,GTTGCCAA,-0.205
4,AATATCGG,-0.197
5,AATCGCAG,0.202
6,AGAAATGC,-0.278
7,ACTATTAA,0.239
8,CGAGGAAC,-0.223
9,ATTCTGGA,0.0394
10,AAGCAGCA,-0.264
11,ATTAGTCA,0.484
12,GGCCATTA,-0.247
13,CAGTTGGC,-0.0842
14,ACGCGATA,-0.27
15,CACATACG,0.0017
16,CGTGTACC,-0.146
17,AGGCTAAA,0.0337
18,CACCGTTA,0.0864
19,GGCGACAC,-0.0533
20,CGTCTCGA,0.0403
21,AAGGATCC,-0.15
22,AATGATTA,0.449
23,AAATATTG,0.0865
24,CCGGCAAG,-0.156
25,GTCTATGA,0.182

row,Sequence,PBM E-score
1,AGTTCATC,0.0393
2,GGCGGGTA,0.0367
3,AAGGATGT,-0.0818
4,CAAAACAA,-0.00639
5,GACATTCC,-0.225
6,CCGCCCAC,-0.0781
7,CACTCATG,0.222
8,ACGCACAG,-0.247
9,CTTGCACC,-0.15
10,AGGCGCTA,0.00497
11,CGAGGATC,0.038
12,AAGGGCTA,-0.072
13,CCTGGGAG,-0.303
14,GGGTGACC,-0.0382
15,AACGTTAC,-0.0895
16,AACTATAC,0.172
17,GCGATGCA,-0.244
18,GAAGATCA,0.02
19,ACCAAACC,-0.0669
20,ACCGACAT,-0.0222
21,GTCGCGAA,0.0905
22,CGAACAGA,-0.078
23,CCAGGCTC,-0.113
24,GCCAGGTA,-0.104
25,AAGATCAC,0.087

row,Sequence,PBM E-score
1,TATCCGAA,-0.0557
2,CCGGGTTC,-0.171
3,GAGAGCCA,0.132
4,CTAGTTTA,0.0113
5,CGCGCTTA,-0.0228
6,CATTTACA,-0.107
7,ACTCATAT,0.368
8,AAAGTGGA,-0.122
9,AGGACGAG,-0.122
10,GGTTGATA,0.0887
11,GAGAGGCC,-0.238
12,AATTGTGT,-0.0757
13,ACTTGACG,-0.0474
14,AAGGCCTA,-0.272
15,CTTTGCGA,-0.0952
16,ACCCTCTG,-0.0307
17,CGTGTTAG,0.133
18,GAAAGGTC,-0.245
19,GCATGTTA,-0.0671
20,ACGACGTA,-0.0468
21,GCGCAACA,0.0632
22,CCGGTAAC,-0.074
23,ATACGGTG,0.129
24,AACTACCT,-0.151
25,ATCAACAA,0.0999

row,Sequence,PBM E-score
1,ACGATGCC,-0.105
2,CTAAAGCC,-0.0501
3,ATAAGTTG,0.0198
4,AGGAAGTG,-0.0363
5,GTACGTGA,0.148
6,GGCTGAAC,0.0357
7,GCGTCTTA,-0.147
8,ATGAAATG,0.0516
9,CCGACACC,-0.284
10,GTGCGCTA,-0.182
11,AAATAGCT,-0.0477
12,CCCATTTC,-0.194
13,CACGCTTC,-0.138
14,CTGTTCAA,-0.011
15,CTATCATA,-0.0368
16,AAACGACT,0.348
17,TATTTTGA,0.109
18,CAGCATCA,0.00385
19,GCCATTTA,-0.0635
20,GCATGCCA,-0.298
21,ATGGGAAT,-0.277
22,CAAAGGCA,-0.163
23,TCGTCCAA,0.1
24,CAAGTTAA,-0.00327
25,ACTATACT,0.0687

row,Sequence,PBM E-score
1,TTCCCCAA,-0.0573
2,CGGTACCC,-0.0985
3,CCCAGCAG,-0.0621
4,CCGCATGC,-0.139
5,AACTGGCA,-0.0881
6,AACTCAAT,0.191
7,GCGAATAC,-0.0076
8,AACAATGG,-0.0905
9,TAGACAAA,-0.134
10,CCAGGCCA,-0.323
11,AATGTTCG,-0.098
12,CCGTCCCC,-0.107
13,ATCTCTAG,-0.0229
14,ATACTTTA,-0.11
15,CTGCATAC,0.126
16,AGAGCAGG,-0.138
17,TATCGAGA,0.14
18,ACAAGACT,0.37
19,CCCAGGGG,-0.182
20,GGTAGCCA,0.183
21,GGTTGCGA,0.0366
22,CGGGGTTA,-0.0527
23,AATGTTGC,-0.0372
24,ATAGCAAT,0.101
25,AAGTTGCG,-0.184

row,Sequence,PBM E-score
1,CCCGCTCC,-0.293
2,CAGGCACG,0.0423
3,AAGGCCGC,-0.364
4,AGATTGGC,-0.174
5,CTTGATTA,0.303
6,ATAGAGTG,0.00994
7,GGTGGACA,-0.137
8,AAATTCGG,0.0245
9,CTATATCA,-0.0493
10,AAAATGTA,0.00062
11,ACGTTCGA,-0.0758
12,AGATGAAC,-0.0599
13,ATGACCAG,0.127
14,CAGGATAC,-0.121
15,CTGTGTAA,0.211
16,TAGGGAAA,0.0303
17,AATCATAT,0.428
18,GTGACAAC,-0.0512
19,AAGCCTCC,-0.13
20,CTTTCATA,0.0438
21,GAGATGAA,0.0961
22,AAAATAGG,-0.063
23,CCGGCGCC,-0.23
24,GCTAGAGA,-0.0643
25,ACGGTTCG,-0.129

row,Sequence,PBM E-score
1,GAAAGACC,-0.152
2,CGACTCTC,0.381
3,TACACAAA,0.143
4,AACTACAC,0.0443
5,CCGCCAAA,-0.163
6,CCACCCAG,-0.176
7,AATAGCTA,-0.0209
8,GTATGGAA,-0.145
9,GATAGTCA,0.476
10,GCTCTTAA,0.00472
11,GGGGTAGA,-0.0382
12,CCTGTGAA,-0.0194
13,AAAGCATA,-0.0765
14,ATCTATAA,0.058
15,CAGGTACA,-0.0726
16,CATATTCC,-0.148
17,GGGCTCCA,-0.281
18,ATGTACAC,0.0029
19,CCCGGGGC,-0.152
20,CCCTGACG,-0.211
21,GAACCATC,0.252
22,CACGCGGA,-0.0849

# From the supplement of paper PMC3334620
